According to PubChem BioAssay AID1346428 (National Center for Advancing Translational Sciences (NCATS), 2018):
Values joined by “and” are separate entries in the source; they are usually repeats but may differ in a detail not shown here. Equal values may be shown once. Screen size: about 48,000 compounds; about 1,200 (2.5%) were called active. Roughly 2% stayed inconclusive and do not appear here.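 The calls were made as follows: active = activation of at least 60% and not above a set upper limit (about 1 call in 100 departs from these limits); inconclusive = activation of 40% to 60%, or above that upper limit; inactive = activation under 40%.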 The list shows a part of the results.

target: Probable G-protein coupled receptor 32 (Homo sapiens) (UniProt O75388); assay: qHTS for Agonists of Human Resolvin D1 Receptor DRV1; settings: CHO-K1 GPR32 beta-arrestin PathHunter luminescence, 90 min; at 76.9 µM; hits give high values; zero percent set by DMSO-only wells; also: 0% is about no effect
UniProt O75388, sequence (O75388 whole entry, looked up, the tested form may be a part): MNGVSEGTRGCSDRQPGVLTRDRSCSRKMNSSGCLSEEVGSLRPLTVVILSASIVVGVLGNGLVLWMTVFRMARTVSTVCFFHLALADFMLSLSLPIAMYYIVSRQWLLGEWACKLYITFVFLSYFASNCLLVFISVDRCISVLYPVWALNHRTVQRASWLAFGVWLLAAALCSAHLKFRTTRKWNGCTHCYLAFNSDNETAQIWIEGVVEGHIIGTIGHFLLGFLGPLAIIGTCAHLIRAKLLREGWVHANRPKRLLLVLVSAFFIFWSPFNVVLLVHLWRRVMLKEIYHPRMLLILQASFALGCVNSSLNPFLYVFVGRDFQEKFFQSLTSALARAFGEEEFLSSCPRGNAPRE
Summary of the method: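 Agonism was scored as beta-arrestin recruitment to ProLink-fused GPR32 in stably transfected CHO-K1 cells, giving a chemiluminescent beta-Gal signal; compounds were incubated 90 min at 37 °C.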

SMILES | activation
O=C(CSc1ccc(-c2ccccn2)nn1)Nc1ccc(F)c(F)c1 | inactive: 5.2%
Cc1ccc(CNC(=O)Cn2c3ncccc3c(=O)n2-c2ccccc2)cc1 | inactive: 16.2%
Cc1cccc(NC(=O)Nc2nnc(N(C)C3CCCCC3)s2)c1C | inactive: -4.1%
CCOc1ccccc1-n1ccnc(NCc2ccc(F)cc2)c1=O | inactive: 48.6%
CCc1ccccc1N(C)C(=O)c1cn(CC(C)C)c(=O)c2cc(OC)c(OC)cc12 | inactive: -5.09%
CC(=O)NNC(=O)N1Cc2ccccc2Oc2ccc(Cl)cc21 | inactive: -8.46%
Cc1nn(CC(=O)NCc2ccco2)c(=O)c2cc3ccccc3n12 | inactive: -12.2%
O=C(CCC(=O)N1Cc2ccccc2Oc2ncccc21)Nc1ccc(Cl)cc1 | inactive: -9.14%
COc1ccc(-c2nn(CC(=O)NC3CCCC3)c3c2cnc2ccc(F)cc23)cc1 | inactive: -19.6%
CC1CCN(S(=O)(=O)c2ccc3c(c2)N(CC(=O)NCc2ccccc2)C(=O)CO3)CC1 | inactive: -2.55%
COc1ccc(OC)c(NC2=C(c3ccccc3)C(=O)c3ccccc32)c1 | inactive: -34.4%
COc1ccc(N2CCN(C(=O)c3cc4c(-c5ccccc5F)nn(C)c4s3)CC2)cc1 | inactive: 11.4%
O=C(Cn1ncc2c(=O)oc3ccccc3c21)Nc1cc(F)ccc1F | inactive: -2.34%
COC(=O)c1ccc(Cl)cc1NC(=O)N1CC=C(c2c[nH]c3ccccc23)CC1 | inactive: -28.3%
CCN(CC)c1nc(-c2ccc(C(C)(C)C)cc2)nc2ccccc12 | inactive: 2.78%
Cc1cccc(OCCCC(=O)Nc2sc3c(c2C(N)=O)CCC(C)C3)c1 (stereo not given) | active: 70.3%
O=C(CSc1nc2nccnc2c(=O)n1CCc1c[nH]c2ccccc12)Nc1ccccc1F | inactive: 14.6%
Oc1ccccc1Nc1nc(-c2ccccc2)c2cc(Cl)ccc2n1 | inactive: -15.3%
COc1ccc(/C=C(\C#N)c2nc(-c3cc(Cl)ccc3OC)cs2)cc1 | inactive: 8.7%
O=C1CS(=O)(=O)C2(C(=O)N(Cc3cccc(F)c3)c3ccccc32)N1c1ccccc1 (stereo not given) | inactive: -1.52%
COc1ccc2c(CNCC(C)c3ccccc3)c(C(=O)O)n(Cc3ccc(F)cc3Cl)c2c1 (stereo not given) | inactive: -3.61%
Cc1cccc(N2CCN(c3c(CN4CCCC4)c(=O)oc4ccccc34)CC2)c1C | inactive: -4.76%

SMILES | activation
CCOC(=O)Cn1nc(N2CCN(c3ccc(F)cc3)CC2)ccc1=O | inactive: 3.64%
CCOC(=O)c1cccc(NC(=O)CCc2c(C)nc3c4cccnc4nn3c2C)c1 | inactive: 7.27%
COC(=O)C1=C(c2ccccc2)c2ccccc2S(=O)(=O)N1CC(=O)Nc1cc(C)ccc1C | inactive: -22.6%
Cc1ccc(CN2C(=O)C3(SCC(=O)N3c3ccc(C)c(C)c3)c3ccccc32)cc1 (stereo not given) | inactive: 7.88%
Cn1c(=O)n(C)c2cc(CNCc3ccc(C(=O)O)cc3)ccc21 | inactive: 3.83%
CSc1ccc(Nc2nn(-c3ccc(OC(F)(F)F)cc3)nc2C(C)=O)cc1 | inactive: -8.85%
Cc1c(C(=O)N2CCOCC2)oc2c1-c1nn(CC(=O)NCc3ccccc3)cc1CC2 | inactive: -14.5%
CCOCCn1ccc2c(OCC(=O)Nc3cc(C(F)(F)F)ccc3Cl)cccc2c1=O | inactive: -8%
COc1ccccc1Cn1c(CNS(=O)(=O)c2c(C)cc(C)cc2C)nc2cccnc21 | inactive: -25.9%
Cc1ccc2c(c1)N(CC(=O)NCc1cccc(Cl)c1)C(=O)c1cccnc1O2 | inactive: -22.7%
CCn1cc(S(=O)(=O)c2ccccc2)c(=O)c2cc(F)c(N3CCCCCC3)cc21 | inactive: -14.7%
Cc1cccc(C(=O)Nc2cc3c(cc2N2CCCCC2)n(C)c(=O)n3C)c1 | inactive: -11.9%
CC(=O)c1cccc(NC(=O)c2ccc3c(c2)CCN3S(=O)(=O)c2ccccc2)c1 | inactive: -12.4%
CCOCCCn1c(=N)c(S(=O)(=O)c2ccccc2)cc2c(=O)n3cc(C)ccc3nc21 | inactive: -8.72%
Cc1ccccc1OCC(=O)Nc1ccc(S(=O)(=O)Nc2ncccn2)cc1 | inactive: 8.32%
CCOc1ccc(CCNC(=O)c2cc3cc4ccc(OC)cc4nc3s2)cc1OCC | active: 65.1%
O=C(CSc1c2c(nc3ccc(Cl)cc13)CCCC2)N1CCCCC1 | inactive: -24%
COCCNC(=O)C(=O)Nc1ccc2nc3n(c(=O)c2c1)CCCCC3 | inactive: 13.8%
C=Cc1ccc(Cn2c(C(=O)O)c(CNCc3cc(OC)ccc3OC)c3ccc(C)cc32)cc1 | inactive: 23.8%
COc1ccc(C(=O)Oc2c(Sc3ccc(C)cc3)c(C)nn2C(C)(C)C)c(OC)c1 | inactive: -3.42%
Nc1c2c(nc3c1CCC3)CCCC2 | inactive: -2.65%
COc1ccc(-c2nc3c(C#N)c[nH]n3c2NC2CCCCC2)cc1 | inactive: -29.4%

SMILES | activation
COc1ccc(C2NC(=O)N(C)C3=C2C(=O)N(c2ccccc2)C3)cc1 (stereo not given) | inactive: 4.2%
COc1ccc(-c2nc(C)c(CCNC(=O)c3cccc(C)c3)s2)cc1OC | inactive: 17.2%
COc1ccc(CCNC(=O)C(C)n2nc(C)c3sc4ccccc4c3c2=O)cc1OC (stereo not given) | inactive: -22.3%
CCC12CN3CC(C)(CN(C1)C3c1c(C)[nH]c3ccccc13)C2=O (stereo not given) | inactive: -27.2%
CCOc1ccc(C2C(C(=O)Nc3ccc(C)cc3C)=C(C)Nc3c(C(=O)Nc4ccc(C)cc4)cnn32)cc1OC (stereo not given) | inactive: -11.3%
CC(=O)c1ccc(S(=O)(=O)N2CCC(Oc3ccc(-n4cnnn4)cc3)CC2)cc1 | inactive: -8.41%
O=C(Nc1cccc(C(=O)OCc2cc(=O)n3nc(C4CC4)sc3n2)c1)c1ccc(F)cc1 | inactive: -7.08%
CCCC(=O)NC1CC(=O)N(c2ccc3c(c2)OCCO3)C1 (stereo not given) | inactive: -6.65%
CCc1ccc(NC(=O)CN2C(=O)C(=O)c3ccccc32)cc1 | inactive: -40.2%
O=C(Nc1cccc(Cl)c1)N1Cc2ccccc2Oc2ncccc21 | inactive: -11.4%
Cc1c(C(=O)N(C)C)sc2c1c(=O)n(-c1ccc(Cl)c(Cl)c1)c(=O)n2Cc1ccc(F)cc1 | inactive: -9.69%
COc1ccccc1C1C(C(N)=O)=C(C)Nc2nc(SCc3ccccc3F)nn21 (stereo not given) | inactive: 9.51%
CN(C(=O)CSc1nc2ccc(NC(=O)c3ccc(F)cc3)cc2s1)c1ccccc1 | inactive: 10.5%
CCOc1ccccc1NC(=O)c1ccc2oc(=O)c(S(=O)(=O)c3ccc(F)cc3)cc2c1 | inactive: 8.69%
O=c1c(-c2ccc(O)cc2)coc2cc(O)cc(O)c12 | inactive: -23.9% and inactive: -11.5%
COc1ccc(NC(=O)CCS(=O)(=O)c2cc(Br)cc3c2N(C(C)=O)CC3)c(OC)c1 | inactive: -13.7%
CCn1cc(C(=O)N(C)Cc2ccccc2)c(=O)c2cc(S(=O)(=O)N3CCCCC3)ccc21 | inactive: 10.6%
Cc1cccc(N2CCN(C(=O)Cn3nc(C)c4sc5ccccc5c4c3=O)CC2C)c1 (stereo not given) | inactive: -13%
COc1ccc(-c2onc(C)c2C)cc1S(=O)(=O)NC1CCCCC1 | inactive: -3.79%
COc1ccc(CNC(=O)CCCCCn2c(=O)[nH]c3ccccc3c2=O)cc1 | inactive: -3.46%
CCOC(=O)c1[nH]c2ccccc2c1NC(=O)c1cc(Cl)ccc1Cl | inactive: 42.6%
Cc1ccc(CNc2ccc(-c3nc(-c4cccnc4)no3)cc2[N+](=O)[O-])cc1 | inactive: 3.24%

SMILES | activation
CCN(CC)S(=O)(=O)c1ccc2c(c1)N(CC(=O)Nc1ccc(F)cc1F)C(=O)C1CCCN21 (stereo not given) | inactive: -29.3%
CCn1cc(C(=O)NCCc2ccc(Cl)cc2)c(=O)c2cc(S(=O)(=O)N3CCOCC3)ccc21 | inactive: 4.07%
COc1cc(NC(=O)Cn2c(C)cc(C)c(C#N)c2=O)cc(OC)c1 | inactive: -1.43%
CCOC(=O)c1[nH]c2ccccc2c1NC(=O)c1ccc(OC)c(OC)c1 | inactive: -20.2%
NCCO | inactive: -16.1%
Oc1cccc(-c2nc3ncccn3c2Nc2cccc(C(F)(F)F)c2)c1 | inactive: 33.4%
COc1ccccc1Nc1nc2c(S(=O)(=O)c3ccc(C(C)C)cc3)nnn2c2ccsc12 | inactive: -3.93%
O=C(CC(c1cccs1)N1Cc2ccccc2C1=O)Nc1ccc(Cl)cc1 (stereo not given) | inactive: -8.91%
COc1ccccc1Cc1nc2ccccc2nc1SCC(=O)NCc1ccc(F)cc1 | inactive: 0.569%
Cc1ccc2c(=O)cc(C(=O)Nc3ccc(S(=O)(=O)N4CCCCC4)cc3)oc2c1C | inactive: -16.6%
Cc1cccc(N2CCN(c3ncnc4onc(-c5ccc(F)cc5)c34)CC2C)c1 (stereo not given) | inactive: 1.03%
CCOc1ccc2nc(Cl)c(C3CC(c4ccc(C)cc4)=NN3C(=O)CCCC(=O)O)cc2c1 (stereo not given) | inactive: 1.76%
Cc1ccc(NC(=O)CCc2nc3cccnc3n2-c2ccccc2)cc1 | inactive: 3.61%
Cc1cc(C)c2oc(-c3ccc(NC(=O)c4cc(Br)ccc4Cl)cc3)nc2c1 | inactive: -4.16%
Cc1c(-c2ccccc2)n(-c2ccc(Cl)cc2)c2nc3c(c(=O)n(C)c(=O)n3C)n12 | inactive: 0.672%
O=C(Cn1c(=O)n(Cc2ccc(C(=O)NCc3ccccc3Cl)cc2)c(=O)c2ccccc21)Nc1ccc(F)cc1 | inactive: -4.9%
Cc1coc2cc3oc(=O)c(CC(=O)NCCc4ccccc4F)c(C)c3cc12 | inactive: -8.03%
CCCCC(=O)Nc1nnc(S(=O)(=O)N2CCCCCC2)s1 | inactive: -7.8%
COC(=O)c1cc2sccc2n1Cc1ccc(F)cc1 | inactive: -10.1%
